# The supplement of paper PMC8728848
# The other results are listed elsewhere or left out.
# Assays:
# Test in all cases: glycan array binding signal (z-score within array); higher = stronger binding
# Details in all cases: glycan notation: IUPAC condensed, linker removed
# [1] = target: Neu5Ac(a2-3)[Neu5Ac(a2-6)]GalNAc
# Summary of the method: (§1)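 The binding signal is a Z-score computed within each array. Data were drawn from 3228 arrays in the Consortium for Functional Glycomics database, restricted to those with a known protein sequence. Scores were averaged over arrays of the same protein sequence at different concentrations or buffers, and over linkers, and negative values can be taken as non-binding.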
# Neu5Ac(a2-6)Gal = target: Neu5Ac(a2-6)Gal
# Summary of the method: as §1
# [2] = target: Neu5Ac(a2-6)Gal(b1-3)GlcNAc(b1-3)[Gal(b1-4)GlcNAc(b1-6)]Gal(b1-4)Glc
# Summary of the method: as §1
# Neu5Ac(a2-6)Gal(b1-4)Glc = target: Neu5Ac(a2-6)Gal(b1-4)Glc
# Summary of the method: as §1
# [3] = target: Neu5Ac(a2-6)Gal(b1-4)GlcNAc
# Summary of the method: as §1
# [4] = target: Neu5Ac(a2-6)Gal(b1-4)GlcNAc(b1-2)Man(a1-3)Man(b1-4)GlcNAc(b1-4)GlcNAc
# Summary of the method: as §1
# [5] = target: Neu5Ac(a2-6)Gal(b1-4)GlcNAc(b1-2)Man(a1-3)[Gal(b1-4)GlcNAc(b1-2)Man(a1-6)]Man(b1-4)GlcNAc(b1-4)GlcNAc
# Summary of the method: as §1
# [6] = target: Neu5Ac(a2-6)Gal(b1-4)GlcNAc(b1-2)Man(a1-3)[GlcNAc(b1-2)Man(a1-6)]Man(b1-4)GlcNAc(b1-4)GlcNAc
# Summary of the method: as §1
# [7] = target: Neu5Ac(a2-6)Gal(b1-4)GlcNAc(b1-2)Man(a1-3)[GlcNAc(b1-2)Man(b1-4)GlcNAc(b1-2)Man(a1-6)]Man(b1-4)GlcNAc(b1-4)GlcNAc
# Summary of the method: as §1
# [8] = target: Neu5Ac(a2-6)Gal(b1-4)GlcNAc(b1-2)Man(a1-3)[Man(a1-6)]Man(b1-4)GlcNAc(b1-4)GlcNAc
# Summary of the method: as §1
# [9] = target: Neu5Ac(a2-6)Gal(b1-4)GlcNAc(b1-2)Man(a1-3)[Neu5Ac(a2-6)Gal(b1-4)GlcNAc(b1-2)Man(a1-6)]Man(b1-4)GlcNAc(b1-4)GlcNAc
# Summary of the method: as §1
# [10] = target: Neu5Ac(a2-6)Gal(b1-4)GlcNAc(b1-2)Man(a1-6)Man(b1-4)GlcNAc(b1-4)GlcNAc
# Summary of the method: as §1
# [11] = target: Neu5Ac(a2-6)Gal(b1-4)GlcNAc(b1-2)Man(a1-6)[Gal(b1-4)GlcNAc(b1-2)Man(a1-3)]Man(b1-4)GlcNAc(b1-4)GlcNAc
# Summary of the method: as §1
# [12] = target: Neu5Ac(a2-6)Gal(b1-4)GlcNAc(b1-2)Man(a1-6)[GlcNAc(b1-2)Man(a1-3)]Man(b1-4)GlcNAc(b1-4)GlcNAc
# Summary of the method: as §1
# [13] = target: Neu5Ac(a2-6)Gal(b1-4)GlcNAc(b1-2)Man(a1-6)[Man(a1-3)]Man(b1-4)GlcNAc(b1-4)GlcNAc
# Summary of the method: as §1
# [14] = target: Neu5Ac(a2-6)Gal(b1-4)GlcNAc(b1-3)Gal(b1-3)GlcNAc
# Summary of the method: as §1
# [15] = target: Neu5Ac(a2-6)Gal(b1-4)GlcNAc(b1-3)Gal(b1-4)GlcNAc
# Summary of the method: as §1
# [16] = target: Neu5Ac(a2-6)Gal(b1-4)GlcNAc(b1-3)Gal(b1-4)GlcNAc(b1-3)Gal(b1-4)GlcNAc
# Summary of the method: as §1
# [17] = target: Neu5Ac(a2-6)Gal(b1-4)GlcNAc(b1-3)Gal(b1-4)[Fuc(a1-3)]GlcNAc(b1-3)Gal(b1-4)[Fuc(a1-3)]GlcNAc
# Summary of the method: as §1
# [18] = target: Neu5Ac(a2-6)Gal(b1-4)GlcNAc(b1-3)GalNAc
# Summary of the method: as §1
# [19] = target: Neu5Ac(a2-6)Gal(b1-4)GlcNAc6S
# Summary of the method: as §1
# Neu5Ac(a2-6)GalNAc = target: Neu5Ac(a2-6)GalNAc
# Summary of the method: as §1
# [20] = target: Neu5Ac(a2-6)GalNAc(b1-4)GlcNAc
# Summary of the method: as §1
# [21] = target: Neu5Ac(a2-6)GlcNAc(b1-4)GlcNAc
# Summary of the method: as §1
# [22] = target: Neu5Ac(a2-6)GlcNAc(b1-4)GlcNAc(b1-4)GlcNAc
# Summary of the method: as §1
# Neu5Ac(a2-8)Neu5Ac = target: Neu5Ac(a2-8)Neu5Ac
# Summary of the method: as §1
# [23] = target: Neu5Ac(a2-8)Neu5Ac(a2-3)Gal(b1-4)Glc
# Summary of the method: as §1
# [24] = target: Neu5Ac(a2-8)Neu5Ac(a2-3)[Gal(b1-3)GalNAc(b1-4)]Gal(b1-4)Glc
# Summary of the method: as §1
# [25] = target: Neu5Ac(a2-8)Neu5Ac(a2-3)[GalNAc(b1-4)]Gal(b1-4)Glc
# Summary of the method: as §1
# [26] = target: Neu5Ac(a2-8)Neu5Ac(a2-8)Neu5Ac
# Summary of the method: as §1
# [27] = target: Neu5Ac(a2-8)Neu5Ac(a2-8)Neu5Ac(a2-3)Gal(b1-4)Glc
# Summary of the method: as §1
# [28] = target: Neu5Ac(a2-8)Neu5Ac(a2-8)Neu5Ac(a2-3)[GalNAc(b1-4)]Gal(b1-4)Glc
# Summary of the method: as §1
# [29] = target: Neu5Ac(a2-8)Neu5Ac(a2-8)Neu5Ac(a2-8)Neu5Ac(a2-3)[GalNAc(b1-4)]Gal(b1-4)Glc
# Summary of the method: as §1
# [30] = target: Neu5Ac(b2-6)Gal(b1-4)GlcNAc
# Summary of the method: as §1
# Neu5Ac(b2-6)GalNAc = target: Neu5Ac(b2-6)GalNAc
# Summary of the method: as §1
# [31] = target: Neu5Ac9Ac(a2-3)Gal(b1-3)GlcNAc
# Summary of the method: as §1
# [32] = target: Neu5Ac9Ac(a2-3)Gal(b1-4)GlcNAc
# Summary of the method: as §1
# [33] = target: Neu5Ac9Ac(a2-6)Gal(b1-4)GlcNAc
# Summary of the method: as §1
# [34] = target: Neu5Gc(a2-3)Gal(b1-3)GlcNAc
# Summary of the method: as §1
# [35] = target: Neu5Gc(a2-3)Gal(b1-3)[Fuc(a1-4)]GlcNAc
# Summary of the method: as §1
# Neu5Gc(a2-3)Gal(b1-4)Glc = target: Neu5Gc(a2-3)Gal(b1-4)Glc
# Summary of the method: as §1
# [36] = target: Neu5Gc(a2-3)Gal(b1-4)GlcNAc
# Summary of the method: as §1
# [37] = target: Neu5Gc(a2-3)Gal(b1-4)[Fuc(a1-3)]GlcNAc
# Summary of the method: as §1
# [38] = target: Neu5Gc(a2-6)Gal(b1-4)GlcNAc
# Summary of the method: as §1
# Neu5Gc(a2-6)GalNAc = target: Neu5Gc(a2-6)GalNAc
# Summary of the method: as §1
# [39] = target: Neu5Gc(b2-6)Gal(b1-4)GlcNAc
# Summary of the method: as §1
binder,measurement,setting,value
"PILRa (Homo sapiens), Q9UKJ1 (protein) MGRPLLLPLLPLLLPPAFLQPSGSTGSGPSYLYGVTQPKHLSASMGGSVEIPFSFYYPWELATAPDVRISWRRGHFHRQSFYSTRPPSIHKDYVNRLFLNWTEGQKSGFLRISNLQKQDQSVYFCRVELDTRSSGRQQWQSIEGTKLSITQAVTTTTQRPSSMTTTWRLSSTTTTTGLRVTQGKRRSDSWHISLETAVGVAVAVTVLGIMILGLICLLRWRRRKGQQRTKATTPAREPFQNTEEPYENIRNEGQNTDPKLNPKDDGIVYASLALSSSTSPRAPPSHRPLKSPQNETLYSVLKA",glycan array binding signal (z-score),[1],0.024
same,glycan array binding signal (z-score),Neu5Ac(a2-6)Gal,1.87
same,glycan array binding signal (z-score),[2],-0.158
same,glycan array binding signal (z-score),Neu5Ac(a2-6)Gal(b1-4)Glc,-0.173
same,glycan array binding signal (z-score),[3],-0.041
same,glycan array binding signal (z-score),[4],-0.527
same,glycan array binding signal (z-score),[5],-0.289
same,glycan array binding signal (z-score),[6],-0.235
same,glycan array binding signal (z-score),[7],-0.32
same,glycan array binding signal (z-score),[8],-0.177
same,glycan array binding signal (z-score),[9],-0.134
same,glycan array binding signal (z-score),[10],-0.323
same,glycan array binding signal (z-score),[11],1.32
same,glycan array binding signal (z-score),[12],-0.3
same,glycan array binding signal (z-score),[13],-0.163
same,glycan array binding signal (z-score),[14],-0.266
same,glycan array binding signal (z-score),[15],-0.365
same,glycan array binding signal (z-score),[16],-0.235
same,glycan array binding signal (z-score),[17],-0.204
same,glycan array binding signal (z-score),[18],0.136
same,glycan array binding signal (z-score),[19],1.63
same,glycan array binding signal (z-score),Neu5Ac(a2-6)GalNAc,-0.093
same,glycan array binding signal (z-score),[20],0.093
same,glycan array binding signal (z-score),[21],0.054
same,glycan array binding signal (z-score),[22],-0.165
same,glycan array binding signal (z-score),Neu5Ac(a2-8)Neu5Ac,0.348
same,glycan array binding signal (z-score),[23],-0.133
same,glycan array binding signal (z-score),[24],-0.253
same,glycan array binding signal (z-score),[25],-0.257
same,glycan array binding signal (z-score),[26],-0.3
same,glycan array binding signal (z-score),[27],-0.308
same,glycan array binding signal (z-score),[28],-0.242
same,glycan array binding signal (z-score),[29],-0.297
same,glycan array binding signal (z-score),[30],-0.16
same,glycan array binding signal (z-score),Neu5Ac(b2-6)GalNAc,0.231
same,glycan array binding signal (z-score),[31],-0.29
same,glycan array binding signal (z-score),[32],-0.356
same,glycan array binding signal (z-score),[33],-0.086
same,glycan array binding signal (z-score),[34],-0.369
same,glycan array binding signal (z-score),[35],-0.37
same,glycan array binding signal (z-score),Neu5Gc(a2-3)Gal(b1-4)Glc,-0.222
same,glycan array binding signal (z-score),[36],-0.246
same,glycan array binding signal (z-score),[37],-0.343
same,glycan array binding signal (z-score),[38],-0.289
same,glycan array binding signal (z-score),Neu5Gc(a2-6)GalNAc,0.02
same,glycan array binding signal (z-score),[39],-0.275
